Our source for the binding signal (RPM ratio (pull-down/input)) values is publication PMC12820563.

The other results are listed elsewhere or left out. The list includes weakly bound sequences.

The assay concerns the target T1, MBP-FoxP3dN (UniProt Q99JB6).
T1 sequence: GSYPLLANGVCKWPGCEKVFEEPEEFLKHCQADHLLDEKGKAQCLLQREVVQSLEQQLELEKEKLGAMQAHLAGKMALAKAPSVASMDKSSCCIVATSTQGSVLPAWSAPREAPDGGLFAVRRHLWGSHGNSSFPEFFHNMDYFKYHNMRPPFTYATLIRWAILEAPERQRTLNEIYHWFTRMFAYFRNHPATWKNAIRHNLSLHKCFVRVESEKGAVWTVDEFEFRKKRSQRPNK
In words: PD-seq (MBP pull-down with sequencing). The following applies: 20 mM Tris-HCl pH 7.5, 100 mM NaCl, 1.5 mM MgCl2, 0.4 uM protein, 0.1 uM dsDNA library, 30 min, room temperature, amylose pull-down; high values mean tight binding; double strand, one strand shown.
Turning to “GATGATTGTTCTCCCAGCTGATGAATTCTAAACGTCGAGTAAACAAATTTTCCTAATCTTTCTGTTCAAGCGCCATCTAC”, the binding signal (RPM ratio (pull-down/input)) was 0.38.

On to “GATGATTGTTCTCCCAGCTGATGAATTCCATTCGTCGAGTAAACAAATTTTCCTAATCTTTCTGTTCAAGCGCCATCTAC”, for which the binding signal (RPM ratio (pull-down/input)) came out at 0.494. “GATGATTGTTCTCCCAGCTGATGAATTCTAGTATTCGAGTAAACAAATTTTCCTAATCTTTCTGTTCAAGCGCCATCTAC”: the binding signal (RPM ratio (pull-down/input)) worked out at 1.14. Next, “GATGATTGTTCTCCCAGCTGATGAATTCAGACCCTCGAGTAAACAAATTTTCCTAATCTTTCTGTTCAAGCGCCATCTAC”: 0.319; “GATGATTGTTCTCCCAGCTGATGAATTCTAATTATCGAGTAAACAAATTTTCCTAATCTTTCTGTTCAAGCGCCATCTAC”: 1.8; “GATGATTGTTCTCCCAGCTGATGAATTAACATCGTCGAGTAAACAAATTTTCCTAATCTTTCTGTTCAAGCGCCATCTAC”: 0.591. The value for “GATGATTGTTCTCCCAGCTGATGAATTTAATACCTCGAGTAAACAAATTTTCCTAATCTTTCTGTTCAAGCGCCATCTAC” was 0.637.

“GATGATTGTTCTCCCAGCTGATGAATTGCTTGGTTCGAGTAAACAAATTTTCCTAATCTTTCTGTTCAAGCGCCATCTAC”: the binding signal (RPM ratio (pull-down/input)) came to 0.956. Consider “GATGATTGTTCTCCCAGCTGATGAATTCGTAAGCTCGAGTAAACAAATTTTCCTAATCTTTCTGTTCAAGCGCCATCTAC”, for which the binding signal (RPM ratio (pull-down/input)) stood at 0.435.

Turning to “GATGATTGTTCTCCCAGCTGATGAATTAGATTCCTCGAGTAAACAAATTTTCCTAATCTTTCTGTTCAAGCGCCATCTAC”, the binding signal (RPM ratio (pull-down/input)) is 0.8. With “GATGATTGTTCTCCCAGCTGATGAATTTTCAAGATCGAGTAAACAAATTTTCCTAATCTTTCTGTTCAAGCGCCATCTAC”, the binding signal (RPM ratio (pull-down/input)) turned out to be 0.17.

Consider “GATGATTGTTCTCCCAGCTGATGAATTCTCCACTTCGAGTAAACAAATTTTCCTAATCTTTCTGTTCAAGCGCCATCTAC”, for which the binding signal (RPM ratio (pull-down/input)) was determined as 0.248. Consider “GATGATTGTTCTCCCAGCTGATGAATTCCACGATTCGAGTAAACAAATTTTCCTAATCTTTCTGTTCAAGCGCCATCTAC”, for which the binding signal (RPM ratio (pull-down/input)) came out at 0.302. The value for “GATGATTGTTCTCCCAGCTGATGAATTCTAAGGATCGAGTAAACAAATTTTCCTAATCTTTCTGTTCAAGCGCCATCTAC” was 0.231; that for “GATGATTGTTCTCCCAGCTGATGAATTGCGTTTGTCGAGTAAACAAATTTTCCTAATCTTTCTGTTCAAGCGCCATCTAC” was 3.57. Next, “GATGATTGTTCTCCCAGCTGATGAATTGGGCGACTCGAGTAAACAAATTTTCCTAATCTTTCTGTTCAAGCGCCATCTAC”: 1.21; “GATGATTGTTCTCCCAGCTGATGAATTTCGCGCATCGAGTAAACAAATTTTCCTAATCTTTCTGTTCAAGCGCCATCTAC”: 1.42; “GATGATTGTTCTCCCAGCTGATGAATTCACGAGGTCGAGTAAACAAATTTTCCTAATCTTTCTGTTCAAGCGCCATCTAC”: 0.211. Next, “GATGATTGTTCTCCCAGCTGATGAATTTCAGTTATCGAGTAAACAAATTTTCCTAATCTTTCTGTTCAAGCGCCATCTAC”: 0.75. Consider “GATGATTGTTCTCCCAGCTGATGAATTTGGTAAATCGAGTAAACAAATTTTCCTAATCTTTCTGTTCAAGCGCCATCTAC”, for which the binding signal (RPM ratio (pull-down/input)) came out at 0.381. Next, “GATGATTGTTCTCCCAGCTGATGAATTTTACAGATCGAGTAAACAAATTTTCCTAATCTTTCTGTTCAAGCGCCATCTAC”: 0.189; “GATGATTGTTCTCCCAGCTGATGAATTGAGGATATCGAGTAAACAAATTTTCCTAATCTTTCTGTTCAAGCGCCATCTAC”: 0.365. The value for “GATGATTGTTCTCCCAGCTGATGAATTTACCCAGTCGAGTAAACAAATTTTCCTAATCTTTCTGTTCAAGCGCCATCTAC” was 0.258; that for “GATGATTGTTCTCCCAGCTGATGAATTGGGCAGTTCGAGTAAACAAATTTTCCTAATCTTTCTGTTCAAGCGCCATCTAC” was 0.742.

On to “GATGATTGTTCTCCCAGCTGATGAATTCAACTGATCGAGTAAACAAATTTTCCTAATCTTTCTGTTCAAGCGCCATCTAC”, for which the binding signal (RPM ratio (pull-down/input)) came to 0.332. Take “GATGATTGTTCTCCCAGCTGATGAATTGCCCTCTTCGAGTAAACAAATTTTCCTAATCTTTCTGTTCAAGCGCCATCTAC”: the binding signal (RPM ratio (pull-down/input)) was 0.507. The value for “GATGATTGTTCTCCCAGCTGATGAATTACAGCCTTCGAGTAAACAAATTTTCCTAATCTTTCTGTTCAAGCGCCATCTAC” was 1.66; that for “GATGATTGTTCTCCCAGCTGATGAATTCGTAATGTCGAGTAAACAAATTTTCCTAATCTTTCTGTTCAAGCGCCATCTAC” was 0.723. Regarding “GATGATTGTTCTCCCAGCTGATGAATTTGCACGGTCGAGTAAACAAATTTTCCTAATCTTTCTGTTCAAGCGCCATCTAC”, the binding signal (RPM ratio (pull-down/input)) worked out at 0.508.

With “GATGATTGTTCTCCCAGCTGATGAATTTGTGCCATCGAGTAAACAAATTTTCCTAATCTTTCTGTTCAAGCGCCATCTAC”, the binding signal (RPM ratio (pull-down/input)) came out at 3.78. Next, “GATGATTGTTCTCCCAGCTGATGAATTTGGGCCATCGAGTAAACAAATTTTCCTAATCTTTCTGTTCAAGCGCCATCTAC”: 1.22; “GATGATTGTTCTCCCAGCTGATGAATTTTGACACTCGAGTAAACAAATTTTCCTAATCTTTCTGTTCAAGCGCCATCTAC”: 2.91.
